# Source: PubChem BioAssay AID686970 (National Center for Advancing Translational Sciences (NCATS), 2013)
# In all, about 360,000 compounds went through this assay and about 6,000 (1.7%) were called active. Inconclusive means that the source gave no clear call. Such entries were picked first, then a sample of the others. The call rests on the fitted dose curve; in most records, active means well fitted cell-killing curve with a large enough effect; inconclusive means small, poorly fitted or top-dose-only effect, or effect the other way; inactive means flat fitted curve, though single readings scatter. Potencies of inconclusive entries are left out as doubtful fits.
# Assay: qHTS for induction of synthetic lethality in tumor cells producing 2HG: qHTS for the HT-1080-NT fibrosarcoma cell line;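 further: NT is the 2HG producing partner of a matched IDH1 knockdown line; nearly all actives have a fitted effect of over 55% in size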;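 on activity, negative = less viability: 0% = DMSO-treated cells and -100% = media-only wells without cells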
# Conditions: HT-1080-NT fibrosarcoma viability, CellTiter-Glo ATP luminescence, 48 h; activity, negative = less viability: at 46.1 µM (top of the series) unless noted
# How it was run: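 Viability of the 2HG-overproducing fibrosarcoma line after 48 hours of compound exposure at 37 degrees C was determined by luminescence with CellTiter-Glo, and concentration-effect curves were then fitted and categorized.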
# Potency means the concentration at half of the fitted maximal effect; tags describe the fitted curve by direction and shape.
SMILES,Potency,"activity, negative = less viability"
O=C(C(c1ccccc1)c1ccccc1)N1CCC(c2nc(-c3ccccc3Cl)no2)CC1,"inconclusive [cytotoxic, partial curve, poor fit]",–
CCn1nccc1C(=O)Nc1cc(Cl)cc(Cl)c1,"inconclusive [cytotoxic, single point]",–
O=C1C(Cl)=C(NS(=O)(=O)c2ccc([N+](=O)[O-])cc2)C(=O)c2ccccc21,"inconclusive [cytotoxic, single point]",–
CCN1CCN(C(c2ccc(C(F)(F)F)cc2)c2ccc3cccnc3c2O)CC1 (stereo not given),"inconclusive [cytotoxic, partial curve, poor fit]",–
Cc1ccc(C(=O)Nc2sc(Cc3ccc4c(c3)OCO4)c(C)c2C(N)=O)cc1,"inconclusive [cytotoxic, single point]",–
CCN(C(=O)c1c(C)cc(=O)oc1C)c1ccc2c(c1)OCO2,–,inactive: -7.02%
O=C(N/N=C/c1ccc2c(c1)OCO2)c1cc(-c2ccco2)nc2ccccc12,active: 4.11 µM,–
Cc1ccc(OCCCCCCN2CCNCC2)c(Br)c1,"inconclusive [cytotoxic, single point]",–
CCC(C(=O)OC)n1cnc2c(nnn2-c2cccc(Cl)c2)c1=O (stereo not given),–,inconclusive: 33.4%
Cn1c(N)c(C(=O)CCl)c(=O)n(Cc2ccccc2)c1=O,–,inactive: -1.89%
Cc1cccc(NC(=O)COC(=O)CN2C(=O)C3CCCCC3C2=O)c1C (stereo not given),–,inactive: 1.69%
COc1cccc(C(C)(O)c2nc(-c3cnc4ccccc4c3)cs2)c1 (stereo not given),–,inactive: -20.1%
Cc1ccc(C(=O)Nc2ncc3c(Cl)cccc3n2)cc1,active: 14.6 µM,–
Cc1nn(C(C)C(=O)NCCC2=CCCCC2)c(=O)c2nn(-c3ccccc3)c(C)c12 (stereo not given),"inconclusive [cytotoxic, single point]",–
COC(=O)c1ccc(N=Cc2c(C(F)(F)F)[nH][nH]c2=O)cc1,"inconclusive [cytotoxic, partial curve]",–
CCCCn1c(N)c(N(CCOC)C(=O)CN2C(=O)C3CCCCC3C2=O)c(=O)[nH]c1=O (stereo not given),–,inactive: 0.525%
Cc1c(/C(O)=C2/C(=O)C(=O)N(CCN3CCOCC3)C2c2ccccn2)cnn1-c1ccccc1 (stereo not given),–,inactive: 6.38%
CN(C)c1ccc(/C=N\NC(=O)c2ccc(Cn3cc(Cl)cn3)cc2)cc1,"inconclusive [cytotoxic, single point]",–
Cc1cc2c(=O)n(Cc3ccco3)c(SCC(=O)N3CCCc4ccccc43)nc2s1,"inconclusive [cytotoxic, single point]",–
Cc1ncsc1C(=O)Nc1nc2c(s1)CCCC2,"inconclusive [cytotoxic, partial curve]",–
CCOC(=O)Cn1c(=O)oc2cc(S(=O)(=O)Nc3ccc(F)cc3)ccc21,–,inactive: -0.41%
Cc1ccc(-c2nn(-c3ccccc3)cc2C=O)o1,"inconclusive [cytotoxic, single point]",–
O=C(NCCCn1ccnc1)c1cccc(S(=O)(=O)NCc2ccccc2)c1,"inconclusive [cytotoxic, partial curve, poor fit]",–

SMILES,Potency,"activity, negative = less viability"
Cc1cccc(NC(=O)Cc2coc3ccc4ccccc4c23)n1,"inconclusive [cytotoxic, single point]",–
Cc1ccccc1NC(=S)NC(=O)c1cc(-c2ccccc2)nc2ccccc12,–,inactive: 2.38%
Cc1ccc(OC(=O)c2oc3ccc(F)cc3c2C)c(C)c1,–,inactive: -17.9%
CC1CCC(C(C)C)C(OC(=O)Cn2c(-c3ccccc3)[n+](C)c3ccccc32)C1 (stereo not given),"inconclusive [cytotoxic, single point]",–
CC(C)(C)NC(=O)C1C(c2ccc(C(F)(F)F)cc2)=Nc2ccccc2N1C(=O)c1cccc2ccccc12 (stereo not given),–,inactive: 17.8%
Cc1ccc(C(NC(=O)C2CCN(CCCOc3ccccc3)CC2)c2ccccn2)cc1 (stereo not given),"inconclusive [cytotoxic, single point]",–
COc1ccc(-c2cc(C(=O)OCC(=O)NC3CC3)c3ccccc3n2)cc1,–,inactive: 2.34%
CCOC(=O)C1=C(C)N=C(/N=C/N(C)C)SC1c1ccccc1 (stereo not given),"inconclusive [cytotoxic, single point]",–
CC(C)Cn1c(=O)c(C(=O)N/N=C/c2cccc(F)c2)c(O)c2ccccc21,–,inactive: -8.62%
c1ccc2c(NC3C4CC5CC(C4)CC3C5)nc(N3CCOCC3)nc2c1 (stereo not given),active: 14.6 µM,–
Cc1ccc([C@H]2C[C@H](O)[C@@H](n3cc(-c4ccc(F)cc4)nn3)CN2C(=O)c2cccs2)cc1,"inconclusive [cytotoxic, single point]",–
N#Cc1ccccc1OCCN1C(=O)c2ccccc2C1=O,–,inactive: 19.1%
O=C(O)c1ccc(/C=C(\c2nc3ccccc3[nH]2)c2nc3ccccc3s2)cc1,"inconclusive [cytotoxic, single point]",–
COc1ccc(S(=O)(=O)N/N=C\c2ccc3c(c2)OCO3)cc1,"inconclusive [cytotoxic, partial curve, poor fit]",–
C/C(=N\NC(=O)c1c([N+](=O)[O-])c(C)nn1C)c1ccc(NC(=O)C2CCCC2)cc1,active: 0.461 µM,–
Cc1cccc(N2CCN(Cc3cn(C)nc3-c3ccccc3F)CC2)n1,"inconclusive [cytotoxic, full curve]",–
O=C(NCCCN1CCOCC1)c1ccc(Sc2cccc(Cl)c2)c([N+](=O)[O-])c1,–,inactive: -7.97%
O=C(CCN1CCN(c2ccccc2)CC1)Nc1ccc2c(c1)OCO2,–,inactive: -4.95%
CCc1nc2ccc(C(=O)N(C)Cc3ccccc3)cn2c1N(C)CCCc1ccccc1,"inconclusive [cytotoxic, single point]",–
O=C(O)c1ccc(CN2C(=O)c3cccc4c([N+](=O)[O-])ccc(c34)C2=O)cc1,"inconclusive [cytotoxic, partial curve, poor fit]",–
CC(C)OCCCNC(=O)COCC(=O)Nc1ccc(OCCc2ccccc2)cc1,"inconclusive [cytotoxic, single point]",–
CCOc1ccc(OCCCCOc2ccccc2C(C)=O)cc1,–,inactive: 8.41%
